Assay results as given in PubChem BioAssay AID485281 (National Center for Advancing Translational Sciences (NCATS), 2010).
Hit rate of the full screen: of about 350,000 compounds, about 260 (0.074%) were called active. The inconclusive results got no clear call from the source; some entries with a clear call stand among them for comparison. Calls come from the whole dose curve; as a rule, active = well fitted inhibition curve with a large enough effect; inconclusive = small, poorly fitted or top-dose-only effect; inactive = no such curve, though single readings can be large or run the other way. A potency beside an inconclusive call is a rough fit, not a confirmed value.

target: Ferritin light chain (Equus caballus) (UniProt P02791); test: qHTS Assay for Identification of Novel General Anesthetics; conditions: apoferritin/1-aminoanthracene competitive binding, fluorescence; activity change, negative = displacement: at 77.5 µM (top of the series); note: nearly all actives have a fitted effect of over 20% in size
Sequence of UniProt P02791 (P02791 whole entry, looked up): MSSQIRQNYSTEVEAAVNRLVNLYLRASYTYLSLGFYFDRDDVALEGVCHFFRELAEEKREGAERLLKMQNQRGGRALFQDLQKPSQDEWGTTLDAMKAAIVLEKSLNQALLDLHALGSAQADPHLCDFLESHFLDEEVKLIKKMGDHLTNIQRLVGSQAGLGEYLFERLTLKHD
Procedure, shortened: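 Concentration-response curves derived by four-parameter Hill fitting of normalized fluorescence, where compounds displaced 1-AMA from 10 uM horse apoferritin following a brief 10 min room-temperature incubation; propofol titration acted as positive control.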
% is set by controls: 0 for no effect and ±100 for the full control effect; potency is the fitted concentration of half-maximal effect; tags give direction and shape of the fitted curve.

| SMILES | Potency | activity change, negative = displacement |
| --- | --- | --- |
| COc1cc(CNCc2ccncc2)cc(Br)c1OCc1ccccc1F | inconclusive: 39.8 µM [inhibitor, single point] | – |
| C=C(C(=O)c1ccccc1)C(C)C(=C)C(=O)c1ccccc1 | inconclusive: 56.2 µM [inhibitor, single point] | – |
| S=c1ccss1 | inconclusive: 31.6 µM [inhibitor, single point] | – |
| COc1ccc(CN2CCN(Cc3ccc4ccccc4c3)CC2)cc1OC | – | inactive: -4.91% |
| CC(=O)Sc1nc(-c2ccccc2)[nH]c1S(=O)(=O)c1ccc(C)cc1 | – | inactive: -0.165% |
| COCCn1c(C)cc(C(=O)COC(=O)c2ccc(NC(=O)CC#N)cc2)c1C | – | inactive: -22.2% |
| COc1ccc(S(=O)(=O)NCC2CCCN(C(=O)c3cccs3)C2)cc1 (centres undefined) | – | inactive: -7.2% |
| CC(C)C[C@@H](CSc1ccccc1)N1CCN(CCc2ccccc2)CCC1=O | inconclusive: 35.5 µM [inhibitor, partial curve] | – |
| COc1ccc(NS(=O)(=O)c2ccc(N/N=C(\C)c3ccncc3)c([N+](=O)[O-])c2)cc1 | – | inactive: -16.6% |
| COC(=O)CSc1nc(COc2ccccc2)nc2ccccc12 | inconclusive: 31.6 µM [inhibitor, single point] | – |
| COC(=O)/C(=C(/F)Sc1cc(C)c(O)c(C)c1)C(F)(F)F | inconclusive: 35.5 µM [inhibitor, partial curve] | – |
| Cn1nccc1C(=O)NC1CCCc2c1cnn2-c1ccc(C(C)(C)C)cc1 (centres undefined) | inconclusive: 31.6 µM [inhibitor, partial curve] | – |
| Cc1ccc(CNC(=O)c2oc3ccc(S(=O)(=O)N4CCOCC4)cc3c2C)cc1 | inconclusive: 17.8 µM [inhibitor, partial curve] | – |
| CCc1ccc(C(=O)c2cn(CC(=O)Nc3cc(OC)ccc3OC)c3nc(C)ccc3c2=O)cc1 | inconclusive: 17.8 µM [inhibitor, partial curve] | – |
| Fc1cccc(-c2nn[nH]n2)c1 | – | inactive: 1.46% |
| COc1ccc(N2CCN(c3cnc4ccccc4n3)CC2)cc1 | – | inactive: -7.68% |
| Cc1occc1C(=O)NNC(=O)NC12CC3CC(CC(C3)C1)C2 | inconclusive: 17.8 µM [inhibitor, partial curve] | – |
| Cc1ccc(C(=O)COC(=O)c2ccc(Br)o2)cc1C | inconclusive: 17.8 µM [inhibitor, partial curve] | – |
| COc1ccc(CCNC(=O)CSc2nc(O)c(CC(C)C)c(=O)[nH]2)cc1OC | inconclusive: 0.891 µM [inhibitor, partial curve, poor fit] | – |
| CC(=O)Nc1ccc(-c2cc(C(=O)O)c3ccccc3n2)cc1 | – | inactive: 11.3% |
| CN(c1nc2c(c(=O)n(C)c(=O)n2C)n1CC(=O)c1ccccc1)C1CCCCC1 | inconclusive: 22.4 µM [inhibitor, partial curve] | – |
| O=C(CSCc1c(Cl)cccc1Cl)NN1C(=O)c2ccccc2C1=O | inconclusive: 31.6 µM [inhibitor, partial curve] | – |
| COc1ccc(N2C(=O)CS(=O)(=O)C23C(=O)N(Cc2ccc(F)cc2)c2ccc(C)cc23)cc1 (centres undefined) | – | inactive: -3.27% |

| SMILES | Potency | activity change, negative = displacement |
| --- | --- | --- |
| S=c1nn[nH]n1C12CC3CC(CC(C3)C1)C2 | inconclusive: 31.6 µM [inhibitor, single point] | – |
| NNc1ncnc2scc(-c3ccc(Cl)cc3)c12 | inconclusive: 56.2 µM [inhibitor, single point] | – |
| CN(CCOc1ccccc1)CC(=O)Nc1ccc([N+](=O)[O-])cc1Cl | inconclusive: 35.5 µM [inhibitor, partial curve] | – |
| O=C(O)C1C2CCC(C2)C1C(=O)Nc1cc(F)ccc1F (centres undefined) | inconclusive: 10 µM [inhibitor, partial curve] | – |
| CN(C)CC1CCn2c(c(C3=C(c4cn(C)c5ccccc45)C(=O)NC3=O)c3ccccc32)C1 (centres undefined) | – | inactive: -20.5% |
| O=c1sc2ccccc2n1COc1ccccc1 | inconclusive: 14.1 µM [inhibitor, partial curve] | – |
| COc1cccc(C(=O)N2CCN(C(=O)c3cccc4ccccc34)CC2)c1OC | – | inactive: -15.9% |
| CCCCCc1ccc(OCCCC[n+]2ccccc2)c(CCCCC)c1 | inconclusive: 12.6 µM [inhibitor, partial curve] | – |
| O=C1OCCC1Sc1nc2cc(Cl)ccc2s1 (centres undefined) | inconclusive: 39.8 µM [inhibitor, partial curve] | – |
| CCOc1ccc(C(=O)N2CCN(c3cccc(C)c3C)CC2)cc1 | inconclusive: 3.55 µM [inhibitor, full curve, poor fit] | – |
| Cc1ccc(C(=O)NCC(=O)OCC(=O)Nc2cc(C)c(C)cc2[N+](=O)[O-])cc1 | inconclusive: 25.1 µM [inhibitor, partial curve] | – |
| O=C(COc1ccc(Cl)cc1Cl)NNC(=S)NCc1ccco1 | – | inactive: -11.6% |
| CCC1CC=CC2C1C(=O)N(Cc1ccccc1)C2c1cccc([N+](=O)[O-])c1 (centres undefined) | inconclusive: 14.1 µM [inhibitor, partial curve] | – |
| CC1Cc2ccccc2N1CC(=O)Nc1ccc2c(c1)OCO2 (centres undefined) | inconclusive: 35.5 µM [inhibitor, partial curve] | – |
| CCCCC(=O)Nc1ncc(Br)s1 | – | inactive: -3.11% |
| Cc1cccc(N2CCN(C(=O)CN3C(=O)COc4ccc(S(=O)(=O)N5CCC(C)CC5)cc43)CC2C)c1 (centres undefined) | inconclusive: 12.6 µM [inhibitor, partial curve] | – |
| Cc1ccc(CNC(=O)c2nnc(CS(=O)(=O)c3ccccc3)o2)cc1 | inconclusive: 20 µM [inhibitor, partial curve] | – |
| N#CCCn1cc(/C=C2\NC(=S)N(c3ccccc3)C2=O)c(-c2ccc(-c3ccccc3)cc2)n1 | – | inactive: -12.5% |
| O=C(Oc1ccccc1N1C(=O)CCC1=O)c1ccco1 | inconclusive: 35.5 µM [inhibitor, partial curve] | – |
| O=c1[nH]c2ccccc2n1Cc1ccc(Cl)cc1 | inconclusive: 28.2 µM [inhibitor, single point] | – |
| Cc1cccc(N2CCN(S(=O)(=O)c3ccc4c(c3)C(C(C)C)C(=O)N4)CC2)c1C (centres undefined) | – | inactive: -0.405% |
| CCC(=O)NCC(=O)OCC(=O)c1ccccc1 | – | inactive: 3.11% |
| COc1ccc(CNc2nc3ccccc3n2Cc2ccc(C)cc2)cc1OC | inconclusive: 7.08 µM [inhibitor, full curve] | – |

| SMILES | Potency | activity change, negative = displacement |
| --- | --- | --- |
| N/C(=N\OC(=O)COc1ccc2ccccc2c1Br)c1cccnc1 | inconclusive: 35.5 µM [inhibitor, single point] | – |
| CCCCOc1ccc(C(=O)NCCc2sc(-c3ccc(OC)c(OC)c3)nc2C)cc1 | inconclusive: 11.2 µM [inhibitor, single point] | – |
| CC(=O)n1nc(-c2ccco2)nc1SCc1ccccc1 | inconclusive: 25.1 µM [inhibitor, partial curve] | – |
| COc1ccc(/C=N/Nc2ncccc2[N+](=O)[O-])c(OC)c1 | inconclusive: 28.2 µM [inhibitor, single point] | – |
| COc1ccc(N2CCN(C(=O)CSc3c4c(nc5ccc(Cl)cc35)CCCC4)CC2)cc1 | inconclusive: 50.1 µM [inhibitor, single point] | – |
| O=C(c1cc([N+](=O)[O-])ccc1Cl)N1CCc2ccccc21 | inconclusive: 28.2 µM [inhibitor, partial curve] | – |
| CC(OC(=O)CCc1c[nH]c2ccccc12)C(=O)c1ccccc1 (centres undefined) | inconclusive: 28.2 µM [inhibitor, partial curve] | – |
| CS(=O)(=O)N1CCC(C(=O)N2CCN(c3cccc(Cl)c3)CC2)CC1 | – | inactive: -5.65% |
| Cc1ccc(NC(=O)C2CCN(S(=O)(=O)c3ccc4[nH]c(=O)ccc4c3)CC2)cc1C | inconclusive: 44.7 µM [inhibitor, single point] | – |
| CCCCc1nc(SCCOC)c2c(=O)n(C)c(=O)n(C)c2n1 | inconclusive: 31.6 µM [inhibitor, partial curve, poor fit] | – |
| COc1cc(/C=C/C(=O)OCC(=O)NC(=O)NC(C)C)cc(S(=O)(=O)N2CCc3ccccc32)c1OC | inconclusive: 12.6 µM [inhibitor, partial curve] | – |
| O=C1ON=C(c2ccccc2)/C1=C/c1ccc(O)c(O)c1 | – | inactive: -5.87% |
| CCC(C)Oc1ccc(C(=O)Nc2ccc(CN3CCOCC3)cc2)cc1 (centres undefined) | inconclusive: 39.8 µM [inhibitor, partial curve] | – |
| COc1cccc(/C=C2\Oc3cc(OCC(=O)N4CCCCC4)ccc3C2=O)c1OC | inconclusive: 28.2 µM [inhibitor, single point] | – |
| Cc1ccc(C(C)C)c(OCC(=O)Nn2c(C)nc3ccccc3c2=O)c1 | inconclusive: 25.1 µM [inhibitor, partial curve] | – |
| C=C(C)C(=O)N1CC2(CC(c3cccc(NC(=O)CC(c4ccccc4)c4ccccc4)c3)=NO2)C[C@H]1C(N)=O (some centres undefined) | inconclusive: 14.1 µM [inhibitor, partial curve] | – |
| Cc1ccc(C(=O)N(Cc2ccco2)Cc2ccco2)cc1 | inconclusive: 31.6 µM [inhibitor, partial curve] | – |
| CSc1nnc(-c2cc3c(s2)-c2ccccc2CC3)o1 | – | inactive: 34.3% |
| CC1(C)S[C@@H]2[C@H](NC(=O)C(C(=O)O)c3ccccc3)C(=O)N2[C@H]1C(=O)O (some centres undefined) | – | inactive: 1.22% |
| CCOC(=O)c1c(-c2ccco2)csc1N | inconclusive: 50.1 µM [inhibitor, partial curve] | – |
| COc1ccc(C(=O)NCCSCc2ccccc2Cl)cc1OC | – | inactive: -15% |
| C/C(CC(=O)Nc1ccc(Cl)c(C(F)(F)F)c1)=N\NC(=O)c1cccc(O)c1 | inconclusive: 10 µM [inhibitor, partial curve] | – |
| Cc1cccc(N2C(=O)CC(N3CCN(c4ccc(Cl)cc4)CC3)C2=O)c1 (centres undefined) | inconclusive: 39.8 µM [inhibitor, single point] | – |
